From patent US20110319597A1 (CAPHALON AUSTRALIA, published 2011)
One block for each binder: values may come before it.

Biological target: recombinant human TNFα (human, UniProt P01375 in part)
Assay: cell-based or functional assay

Sequence of UniProt P01375 (P01375 77-233 limits assumed): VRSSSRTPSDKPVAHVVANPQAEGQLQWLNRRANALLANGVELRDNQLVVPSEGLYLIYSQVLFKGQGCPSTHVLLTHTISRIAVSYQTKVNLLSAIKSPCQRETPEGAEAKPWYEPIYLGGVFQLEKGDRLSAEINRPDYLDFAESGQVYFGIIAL

B2: TNFα dAb Fc variant L11S (Fc fusion, name in Kabat numbering)
chain: DIQMTQSPSSSSASVGDRVTITCRASQAIDSYLHWYQQKPGKAPKLLIYSASNLETGVPSRFSGSGSGTDFTLTISSLLPEDFATYYCQQVVWRPFTFGQGTKVEIKRV[human IgG1 Fc with changes left out]
- Standardized EC50, L929 neutralization assay (5-point): 1.64 µg/mL

B5: TNFα dAb Fc variant L11A (Fc fusion, name in Kabat numbering)
chain: DIQMTQSPSSASASVGDRVTITCRASQAIDSYLHWYQQKPGKAPKLLIYSASNLETGVPSRFSGSGSGTDFTLTISSLLPEDFATYYCQQVVWRPFTFGQGTKVEIKRV[human IgG1 Fc with changes left out]
- Standardized EC50, L929 neutralization assay (5-point): 0.912 µg/mL

B7: TNFα dAb Fc variant Q3K (Fc fusion, name in Kabat numbering)
chain: DIKMTQSPSSLSASVGDRVTITCRASQAIDSYLHWYQQKPGKAPKLLIYSASNLETGVPSRFSGSGSGTDFTLTISSLLPEDFATYYCQQVVWRPFTFGQGTKVEIKRV[human IgG1 Fc with changes left out]
- Standardized EC50, L929 neutralization assay (5-point): 1.82 µg/mL

B9: TNFα dAb Fc variant S9H (Fc fusion, name in Kabat numbering)
chain: DIQMTQSPHSLSASVGDRVTITCRASQAIDSYLHWYQQKPGKAPKLLIYSASNLETGVPSRFSGSGSGTDFTLTISSLLPEDFATYYCQQVVWRPFTFGQGTKVEIKRV[human IgG1 Fc with changes left out]
- Standardized EC50, L929 neutralization assay (5-point): 1.23 µg/mL

B10: TNFα dAb Fc variant S10Q (Fc fusion, name in Kabat numbering)
chain: DIQMTQSPSQLSASVGDRVTITCRASQAIDSYLHWYQQKPGKAPKLLIYSASNLETGVPSRFSGSGSGTDFTLTISSLLPEDFATYYCQQVVWRPFTFGQGTKVEIKRV[human IgG1 Fc with changes left out]
- Standardized EC50, L929 neutralization assay (5-point): 1.42 µg/mL

B11: TNFα dAb Fc variant Q3P (Fc fusion, name in Kabat numbering)
chain: DIPMTQSPSSLSASVGDRVTITCRASQAIDSYLHWYQQKPGKAPKLLIYSASNLETGVPSRFSGSGSGTDFTLTISSLLPEDFATYYCQQVVWRPFTFGQGTKVEIKRV[human IgG1 Fc with changes left out]
- Standardized EC50, L929 neutralization assay (5-point): 20.5 µg/mL

B12: TNFα dAb Fc variant S7Y (Fc fusion, name in Kabat numbering)
chain: DIQMTQYPSSLSASVGDRVTITCRASQAIDSYLHWYQQKPGKAPKLLIYSASNLETGVPSRFSGSGSGTDFTLTISSLLPEDFATYYCQQVVWRPFTFGQGTKVEIKRV[human IgG1 Fc with changes left out]
- Standardized EC50, L929 neutralization assay (5-point): 0.928 µg/mL

B14: TNFα dAb Fc variant S9A (Fc fusion, name in Kabat numbering)
chain: DIQMTQSPASLSASVGDRVTITCRASQAIDSYLHWYQQKPGKAPKLLIYSASNLETGVPSRFSGSGSGTDFTLTISSLLPEDFATYYCQQVVWRPFTFGQGTKVEIKRV[human IgG1 Fc with changes left out]
- Standardized EC50, L929 neutralization assay (5-point): 0.671 µg/mL

Next, values leading:

- Standardized EC50, L929 neutralization assay (5-point): 3.61 µg/mL
B1: TNFα dAb Fc variant I2Y (Fc fusion, name in Kabat numbering)
chain: DYQMTQSPSSLSASVGDRVTITCRASQAIDSYLHWYQQKPGKAPKLLIYSASNLETGVPSRFSGSGSGTDFTLTISSLLPEDFATYYCQQVVWRPFTFGQGTKVEIKRV[human IgG1 Fc with changes left out]

- Standardized EC50, L929 neutralization assay (5-point): 1.01 µg/mL
B3: TNFα dAb Fc variant L11Q (Fc fusion, name in Kabat numbering)
chain: DIQMTQSPSSQSASVGDRVTITCRASQAIDSYLHWYQQKPGKAPKLLIYSASNLETGVPSRFSGSGSGTDFTLTISSLLPEDFATYYCQQVVWRPFTFGQGTKVEIKRV[human IgG1 Fc with changes left out]

- Standardized EC50, L929 neutralization assay (5-point): 1.23 µg/mL
B4: TNFα dAb Fc variant S9K (Fc fusion, name in Kabat numbering)
chain: DIQMTQSPKSLSASVGDRVTITCRASQAIDSYLHWYQQKPGKAPKLLIYSASNLETGVPSRFSGSGSGTDFTLTISSLLPEDFATYYCQQVVWRPFTFGQGTKVEIKRV[human IgG1 Fc with changes left out]

- Standardized EC50, L929 neutralization assay (5-point): 0.616 µg/mL
B6: TNFα dAb Fc variant S10L (Fc fusion, name in Kabat numbering)
chain: DIQMTQSPSLLSASVGDRVTITCRASQAIDSYLHWYQQKPGKAPKLLIYSASNLETGVPSRFSGSGSGTDFTLTISSLLPEDFATYYCQQVVWRPFTFGQGTKVEIKRV[human IgG1 Fc with changes left out]

- Standardized EC50, L929 neutralization assay (5-point): 0.676 µg/mL
B8: TNFα dAb Fc variant S7D (Fc fusion, name in Kabat numbering)
chain: DIQMTQDPSSLSASVGDRVTITCRASQAIDSYLHWYQQKPGKAPKLLIYSASNLETGVPSRFSGSGSGTDFTLTISSLLPEDFATYYCQQVVWRPFTFGQGTKVEIKRV[human IgG1 Fc with changes left out]

- Standardized EC50, L929 neutralization assay (5-point): 0.725 µg/mL
B13: TNFα dAb Fc variant I2P (Fc fusion, name in Kabat numbering)
chain: DPQMTQSPSSLSASVGDRVTITCRASQAIDSYLHWYQQKPGKAPKLLIYSASNLETGVPSRFSGSGSGTDFTLTISSLLPEDFATYYCQQVVWRPFTFGQGTKVEIKRV[human IgG1 Fc with changes left out]

- Standardized EC50, L929 neutralization assay (5-point): 10.2 µg/mL
B15: TNFα dAb Fc variant L11D (Fc fusion, name in Kabat numbering)
chain: DIQMTQSPSSDSASVGDRVTITCRASQAIDSYLHWYQQKPGKAPKLLIYSASNLETGVPSRFSGSGSGTDFTLTISSLLPEDFATYYCQQVVWRPFTFGQGTKVEIKRV[human IgG1 Fc with changes left out]

- Standardized EC50, L929 neutralization assay (5-point): 1.09 µg/mL
B16: TNFα dAb Fc variant S7H (Fc fusion, name in Kabat numbering)
chain: DIQMTQHPSSLSASVGDRVTITCRASQAIDSYLHWYQQKPGKAPKLLIYSASNLETGVPSRFSGSGSGTDFTLTISSLLPEDFATYYCQQVVWRPFTFGQGTKVEIKRV[human IgG1 Fc with changes left out]

- Standardized EC50, L929 neutralization assay (5-point): 2.72 µg/mL
B17: TNFα dAb Fc variant S10K (Fc fusion, name in Kabat numbering)
chain: DIQMTQSPSKLSASVGDRVTITCRASQAIDSYLHWYQQKPGKAPKLLIYSASNLETGVPSRFSGSGSGTDFTLTISSLLPEDFATYYCQQVVWRPFTFGQGTKVEIKRV[human IgG1 Fc with changes left out]

- Standardized EC50, L929 neutralization assay (5-point): 6.59 µg/mL
B18: TNFα dAb Fc variant S10P (Fc fusion, name in Kabat numbering)
chain: DIQMTQSPSPLSASVGDRVTITCRASQAIDSYLHWYQQKPGKAPKLLIYSASNLETGVPSRFSGSGSGTDFTLTISSLLPEDFATYYCQQVVWRPFTFGQGTKVEIKRV[human IgG1 Fc with changes left out]

- Standardized EC50, L929 neutralization assay (5-point): 2.1 µg/mL
B19: TNFα dAb Fc variant S7K (Fc fusion, name in Kabat numbering)
chain: DIQMTQKPSSLSASVGDRVTITCRASQAIDSYLHWYQQKPGKAPKLLIYSASNLETGVPSRFSGSGSGTDFTLTISSLLPEDFATYYCQQVVWRPFTFGQGTKVEIKRV[human IgG1 Fc with changes left out]

- Standardized EC50, L929 neutralization assay (5-point): 0.488 µg/mL
B20: TNFα dAb Fc variant S7Q (Fc fusion, name in Kabat numbering)
chain: DIQMTQQPSSLSASVGDRVTITCRASQAIDSYLHWYQQKPGKAPKLLIYSASNLETGVPSRFSGSGSGTDFTLTISSLLPEDFATYYCQQVVWRPFTFGQGTKVEIKRV[human IgG1 Fc with changes left out]
